# The campaign covered roughly 420,000 compounds. About 64,000 (15%) were called active. This list was built around the results that the source calls inconclusive (neither active nor inactive); the mix of calls is not that of the screen. Calls come from the whole dose curve; as a rule, active = well fitted inhibition curve with a large enough effect; inconclusive = small, poorly fitted or top-dose-only effect; inactive = flat fitted curve, though single readings scatter. No potency is given beside an inconclusive call; the fits are too rough.
# Test: qHTS for Inhibitors of human tyrosyl-DNA phosphodiesterase 1 (TDP1): qHTS in cells in absence of CPT; note: nearly all actives have a fitted effect of over 55% in size
# Conditions: DT40 Tdp1-/- hTDP1 cells, no CPT, ATP luminescence, 48 h; activity change, negative = growth inhibition: at 46.2 µM (top of the series) unless noted
# Summary of the method: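 Camptothecin absent (DMSO only). Human TDP1-complemented DT40 knockout cells, 400 cells/well, 37 °C for minimum 48 hr; ATP measured via CellTiter-Glo, 30 min dark incubation, luminescence.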
# % is set by controls: 0 for no effect and ±100 for the full control effect; potency is the fitted concentration of half-maximal effect; tags give direction and shape of the fitted curve.
Structure (SMILES),Potency,"activity change, negative = growth inhibition"
CCC1CCC(c2nnc(-c3ccc(Br)cc3)o2)CC1 (configuration not stated),"inconclusive [inhibitor, single point]",–
COc1cccc(-c2nn(-c3ccccc3)cc2CN(C)Cc2c(C)nc3ccccn23)c1,"inconclusive [inhibitor, single point]",–
Cc1ccc(N2C(=O)C3C(C2=O)C2C=CC3C23CC3)c([N+](=O)[O-])c1 (configuration not stated),–,inactive: -2.6%
Cc1ccc(NC(=O)CN(C)C2CCCCC2)cc1Cl,"inconclusive [inhibitor, single point]",–
CC1CCCC(C)N1/N=C/C=C/c1ccccc1[N+](=O)[O-] (configuration not stated),"inconclusive [inhibitor, single point]",–
Cc1ccc(NC(=O)CCC(=O)N/N=C/c2coc3ccc(F)cc3c2=O)cc1,"inconclusive [inhibitor, single point]",–
O=C(NN1C(=O)C2C3C=CC(O3)C2C1=O)c1cccc(O)c1 (configuration not stated),–,inconclusive: -30% [inhibitor]
CC1CCCN(S(=O)(=O)c2ccc(NC(=O)[C@@H]3CCCN3C(=O)c3cccs3)cc2)C1 (some centres not stated),"inconclusive [inhibitor, single point]",–
NC(=S)N/N=C/c1cccc(O)c1O,active: 0.92 µM,–
N#Cc1cc2c(nc1Cl)CCCC2,–,inconclusive: -26.4% [inhibitor]
Cc1nc2ccccc2nc(C)c1=NOCc1cccc(F)c1,"inconclusive [inhibitor, single point]",–
COc1ccc(-c2cc(=O)oc3c4c(ccc23)OCN(Cc2ccccc2)C4)cc1,"inconclusive [inhibitor, single point]",–
COCCn1c(Cc2ccccc2)nnc1SCC(=O)Nc1oc(C)c2c(C)n[nH]c(=O)c12,–,inactive: -0.466%
CCSc1cc(C2C(C(=O)OC)=C(C)NC3=C2C(=O)CCC3)c(C)o1 (configuration not stated),–,inactive: 7.03%
OC(c1cc(-c2cccc(Cl)c2)nc2ccccc12)C1CCCCN1 (configuration not stated),active: 2.59 µM,–
O=C(COC(=O)CNC(=O)c1ccc(Br)cc1)NCCC1=CCCCC1,–,inactive: -6.29%
CCOc1ccc(OCC)c(NC(=O)CSc2nnc(C3CC3)n2CC)c1,–,inconclusive: -32.1% [inhibitor]
COC(=O)C1=C(C)N(c2cccc(OC)c2)C(=O)/C1=C\c1ccco1,"inconclusive [inhibitor, single point]",–
Cc1c(NC2=CC(=O)CCC2)c(=O)n(-c2ccccc2)n1C,–,inactive: -7.97%
Cc1ccccc1Nc1cc(=O)oc2ccccc12,active: 20.6 µM,–
CCOc1ccccc1Nc1nnc(SC(C)C(=O)Nc2nc(-c3ccccc3)cs2)s1 (configuration not stated),–,inactive: -20.9%
COc1ccccc1CNC(=O)c1cccc(S(=O)(=O)N2CCN(c3ccc(F)cc3)CC2)c1,active: 11.6 µM,–
Cc1ccc[n+](CC(=O)Nc2ccc([N+](=O)[O-])cc2)c1,active: 20.6 µM,–
CC1=CC(=O)C(C(C)C)=C/C1=C(\c1cc(C(C)C)c(OP(=O)(O)O)cc1C)c1ccccc1C(=O)O,active: 20.6 µM,–

Structure (SMILES),Potency,"activity change, negative = growth inhibition"
Cc1ccccc1CN1[C@H]2CCCC[C@@H]2OCCS1(=O)=O,"inconclusive [inhibitor, single point]",–
CN(CCc1ccccn1)c1ncnc2[nH]ncc12,"inconclusive [inhibitor, single point]",–
O=C(CSc1cc([N+](=O)[O-])cc(S(=O)(=O)Cc2ccccc2)c1)NC1CC1,"inconclusive [inhibitor, single point]",–
CC(=O)Nc1c(C)nn(-c2ccccc2)c1N1CCC(C(=O)NCc2ccc(F)cc2)CC1,–,inactive: -6.98%
C=C(C)Cn1c(SCC(=O)c2ccccc2)nc2sc3c(c2c1=O)CCCC3,"inconclusive [inhibitor, partial curve]",–
O=C1NC(c2ccccc2)=C(c2ccccc2)C1=O,–,inactive: -5.04%
Cc1ccc(NC(=O)C(=O)c2c(-c3ccccc3)cc3ccccn23)cc1S(=O)(=O)N1CCOCC1,"inconclusive [inhibitor, single point]",–
CCOC(=O)c1cnc(-n2cc(C)cn2)nc1Nc1ccccc1OCC,active: 6.51 µM,–
O=C(c1ccc(-n2cccn2)cc1)N1CCN(c2ncccc2C(F)(F)F)CC1,"inconclusive [inhibitor, single point]",–
CC(=O)OC[C@@H]1CN(Cc2ccccc2)C[C@H](n2cnc3c(Nc4ccccc4)ncnc32)O1,"inconclusive [inhibitor, single point]",–
CC(C)Sc1nnc([C@H](Cc2c[nH]c3ccccc23)NC(=O)OC(C)(C)C)o1,"inconclusive [inhibitor, single point]",–
CN(C)CCCN(C(=O)c1ccc(S(=O)(=O)N2CCc3ccccc32)cc1)c1nc2ccc(F)cc2s1,–,inconclusive: -31.2% [inhibitor]
CCOc1ccc(N(CC(=O)N2CCC(Cc3ccccc3)CC2)S(C)(=O)=O)cc1,"inconclusive [inhibitor, single point]",–
CCOC(=O)c1c(C)[nH]c(O)c1C=Nc1ccccc1,"inconclusive [inhibitor, single point]",–
Cc1cccc(N2CCN(C(=O)c3cc4c(=O)n(C)c5ccccc5c4n3C)CC2)c1C,active: 16.4 µM,–
O=C(OCC(=O)c1c[nH]c2ccccc12)c1ccc(F)c(S(=O)(=O)N2CCOCC2)c1,–,inconclusive: -30.5% [inhibitor]
Cc1ccc(COC(=O)c2cc(S(=O)(=O)N3CCCCC3)ccc2N2CCOCC2)cc1,active: 25.9 µM,–
CC(=O)N1c2ccc(S(=O)(=O)N3CCCC(C(=O)NCc4ccccc4)C3)cc2CC1C (configuration not stated),"inconclusive [inhibitor, single point]",–
COC(=O)/C=C/c1ccc(OC(=O)OC)c(OC(=O)OC)c1,"inconclusive [inhibitor, single point]",–
Cn1c(CNC(=O)C2CCCCC2)cc2ccccc21,"inconclusive [inhibitor, full curve, poor fit]",–
CC(=NCc1ccc2c(c1)OCO2)C1=C(O)c2ccccc2C1=O,"inconclusive [inhibitor, partial curve]",–
S=C1NC[C@H](c2ccccc2)N1CCCCC1CCCCC1,"inconclusive [inhibitor, single point]",–
COc1ccccc1/C=N/NC(=O)c1[nH]c(C)c(C(=O)N/N=C/c2ccccc2OC)c1C,–,inactive: -0.823%
O=C(COc1ccc2c3c(c(=O)oc2c1)CCC3)N1CCN(c2ccccc2)CC1,"inconclusive [inhibitor, single point]",–

Structure (SMILES),Potency,"activity change, negative = growth inhibition"
Cc1cc2nc(C3CCN(C(=S)NCCCOC(C)C)CC3)[nH]c2cc1C,–,inactive: -20.8%
Brc1ccc(/C=N/Nc2ccccc2)cc1,–,inactive: -25.8%
O=C(COc1ccc(Br)cc1Cl)NC(=S)N1CCc2ccccc21,–,inactive: -6.89%
CCn1c(C)c(C(C)=O)c(N2CCN(C(c3ccccc3)c3ccccc3)CC2)nc1=S,active: 6.51 µM,–
COCC(=O)N1CCC2(CCCN(c3cccc(-c4ccccc4)c3)C2)CC1,"inconclusive [inhibitor, single point]",–
CCn1c(CNC(=O)c2ccc3c(c2)OCO3)nnc1SCC(=O)Nc1cc(C)ccc1OC,–,inactive: -14.8%
Cc1ccnc(N/C=C(/NC(=O)c2ccccc2)C(=O)N/N=C\c2ccc(Cl)cc2)n1,"inconclusive [inhibitor, single point]",–
CN(C(=O)c1ccc2c(c1)OCO2)C1(C)CCS(=O)(=O)C1 (configuration not stated),–,inactive: -6.03%
CCOC(=O)CNC(=S)N(Cc1ccccc1)Cc1ccccc1F,"inconclusive [inhibitor, single point]",–
CCOc1ccc(NS(=O)(=O)c2cc(C(=O)N3CCN(c4ccccc4O)CC3)ccc2Cl)cc1,"inconclusive [inhibitor, partial curve]",–
O=C(O)C(=Cc1cccc([N+](=O)[O-])c1)c1ccccc1,"inconclusive [inhibitor, single point]",–
COc1ccc(CNC(=O)c2ccc(NC(=O)N3CCSc4ncccc43)cc2)cc1,"inconclusive [inhibitor, single point]",–
Cn1c(=O)cc(Nc2ccccc2)c2c(=O)n(-c3ccccc3)c(=O)n(-c3ccccc3)c21,"inconclusive [inhibitor, partial curve]",–
COc1ccc(Cl)cc1NC(=S)NCc1ccc(S(N)(=O)=O)cc1,"inconclusive [inhibitor, single point]",–
CC(=O)c1cccc(NC(=O)Cn2nc(-c3ccccc3Cl)ccc2=O)c1,"inconclusive [inhibitor, single point]",–
O=C(CN1C(=O)C2C3C=CC(C3)C2C1=O)NCc1ccc2c(c1)OCO2 (configuration not stated),–,inactive: -17.6%
Cc1c(C(=O)NCc2ccccc2CN2CCCC2)oc2ccc(F)cc12,"inconclusive [inhibitor, single point]",–
O=C(Sc1n[nH]c(=O)[nH]c1=O)c1ccccc1,–,inactive: -10.4%
Cc1ccc(C)c(S(=O)(=O)N(C)C2(C)CCS(=O)(=O)C2)c1 (configuration not stated),–,inactive: -17.4%
Cc1ccc(CNC(=O)c2ccccc2N)cc1,–,inactive: 5.97%
Cc1ccc(CC(=O)NCC(c2ccco2)N(C)C)cc1C (configuration not stated),–,inactive: 9.1%
COCCNc1ncnc2c1ncn2[C@H]1CN(CCOC)C[C@@H](CO)O1,–,inactive: -7.93%
O=C(NC1CCN(C(=O)Nc2cccc(Cl)c2)CC1)c1ccccc1,"inconclusive [inhibitor, single point]",–
COc1cc([N+](=O)[O-])ccc1NC(=S)N1CCN(c2ccccn2)CC1,–,inactive: -15.4%

# Source: PubChem BioAssay AID686978 (National Center for Advancing Translational Sciences (NCATS), 2013)
